From the supplement of paper PMC3334620
Whole data set: some 33,000 sequences, median “E-score (-0.5 to 0.5)” near -0.011, cut for the highest 2% near 0.28. The list shows a part of the results.

target: T1, Gcr1 (UniProt P07261); assay: PBM E-score (8-mer binding enrichment) (E-score (-0.5 to 0.5)); higher = stronger / more preferred TF binding; most listed sequences are background and not binding sites; details: protein concentration: 100 nM; construct: GST-full length
T1 sequence: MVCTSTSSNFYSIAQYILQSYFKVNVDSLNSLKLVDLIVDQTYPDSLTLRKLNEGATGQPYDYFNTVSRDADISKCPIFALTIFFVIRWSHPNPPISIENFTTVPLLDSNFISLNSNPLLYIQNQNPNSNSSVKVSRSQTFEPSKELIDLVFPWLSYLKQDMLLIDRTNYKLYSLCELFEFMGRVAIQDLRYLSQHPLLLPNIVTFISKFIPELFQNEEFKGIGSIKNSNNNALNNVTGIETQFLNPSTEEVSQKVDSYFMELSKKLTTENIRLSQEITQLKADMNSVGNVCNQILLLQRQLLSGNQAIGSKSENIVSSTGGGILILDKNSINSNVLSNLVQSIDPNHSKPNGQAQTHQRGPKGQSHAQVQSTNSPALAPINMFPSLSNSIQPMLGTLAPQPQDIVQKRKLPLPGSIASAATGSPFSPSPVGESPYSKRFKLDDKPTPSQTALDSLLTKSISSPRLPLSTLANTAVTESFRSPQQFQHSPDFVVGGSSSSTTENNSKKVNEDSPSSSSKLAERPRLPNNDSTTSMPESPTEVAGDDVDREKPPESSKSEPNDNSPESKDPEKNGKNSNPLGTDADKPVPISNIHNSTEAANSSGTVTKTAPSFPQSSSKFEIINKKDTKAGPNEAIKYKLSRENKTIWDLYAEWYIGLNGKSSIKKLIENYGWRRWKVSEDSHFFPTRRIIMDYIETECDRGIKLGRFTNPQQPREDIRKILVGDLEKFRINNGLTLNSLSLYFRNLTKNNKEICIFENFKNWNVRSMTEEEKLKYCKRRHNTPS
Protocol: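 Universal 'all 10-mer' protein binding microarrays (Agilent AMADID 015681) probed with GST-tagged S. cerevisiae TFs (full-length or DBD) made by in vitro transcription/translation (PURExpress), about 100-200 nM. Bound TF was detected with fluorescent anti-GST. Each ungapped 8-mer (which stands for itself and its reverse complement) is scored by the PBM enrichment score (E-score), a modified Wilcoxon-Mann-Whitney statistic from -0.5 to +0.5, computed with the Universal PBM Analysis Suite. Scale: above 0.35 generally sequence-specific binding.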

Sequence	PBM E-score
AATCACTA	0.11
ATTGGGGA	-0.0622
AGGACGAA	-0.128
AATGCCGT	-0.0487
CATTGCAA	-0.0752
TAAAGCAA	-0.0965
CTCGCCCA	-0.0222
GGGCAGTA	-0.0924
GGGTCACA	-0.143
CGGTACGC	-0.0877
CGTCGCAC	-0.116
ACGGGATG	0.0415
CCTGTTCC	0.0795
AGATTTCA	0.128
ATCTATTC	0.066
GTATTTGA	0.0535
TATTAAGA	0.202
GGAGCGAA	-0.0873
ATGGCATC	0.175
CGGACGTC	0.134
GACGTGAC	-0.19
ATAAGTCC	-0.115
ACCCAGAT	0.135
TCGAAGCA	-0.152
GAGAACAC	-0.0589

Sequence	PBM E-score
CGCCATAA	0.143
GAACCACA	0.0678
GACAGTGA	-0.178
ACACAATA	0.0111
TACACGCA	0.235
TAAGCCAA	0.0672
ATCTTGTA	0.185
TACGGACA	-0.0831
AGAATGTC	-0.0871
CCCAAAGA	0.2
CAGGTGTC	0.0776
GATCTAGA	0.165
ACATCCAT	-0.134
AACTAAGA	0.0588
AGCCTCTG	0.0714
AACTGCTA	0.0143
GAAAGCGA	0.0995
CGAAAGAG	-0.0406
TAGTATGA	0.0561
AATTTGCT	0.0719
CAAATGCA	-0.11
GCAAATGA	-0.0634
GCGAGAGC	-0.0442
AATTTAAT	0.0785
AGCGAAAG	0.0778

Sequence	PBM E-score
AGACAATA	-0.117
ACCGCTAA	0.0833
CATTATCA	0.0688
TAGTGGGA	0.22
ACCCGGGG	0.0615
GATTACGC	0.00172
AAGTGATC	-0.0428
CTCGGTCA	-0.199
TCAGGAAA	-0.0586
ATATTGGA	0.205
CCGAGCCA	-0.0468
ATCACGCC	-0.0162
GTAGACGA	0.0867
ACACACCA	-0.0914
AGAGCGAG	0.00999
CCTACGCC	-0.217
AGAGCCCC	0.016
CCACATAC	0.116
ACACTTGA	-0.2
GAAAGTAC	-0.0722
TCATAGAA	-0.0688
GACGATAC	0.0896
ACATAGGT	0.0584
GCATCATA	0.18
GACCAACA	0.0568

Sequence	PBM E-score
ATAGAAGA	0.0114
CTGGGCCA	-0.262
ATTATAAC	0.0894
CGAACCTA	-0.117
ACCCGCAA	0.0318
ACTTGTTA	0.175
CCATGCCC	-0.119
CCTGGATC	-0.00306
CTGCGCAG	0.00124
ATCTTCTC	-0.00483
CTCACGCA	0.0172
AATAGGGA	0.0607
CACAGCGG	-0.113
GAACAATA	-0.0142
TCAGGCGA	-0.0619
ATTAGTGC	-0.00168
GCTGGCAA	0.155
CAGCACAG	-0.0678
AGATCCGC	-0.0362
AGGAGTCG	-0.069
GCGACTGA	-0.0182
GTGTTAGA	-0.0193
AAATCTAG	0.121
ATGCCAAC	0.0656
CAACGATA	-0.128

Sequence	PBM E-score
CAGCCTCG	-0.157
GAGCAAGA	-0.037
CCGAGAGG	-0.0295
GTTCGGGA	-0.00896
GGTGTTTA	-0.12
AAATTTGT	0.102
GAGAAGAC	0.0559
AGGAAGAT	0.254
CCGTCGCG	-0.155
CAGAAGAG	-0.0054
ACTATCTA	-0.0777
ATTCCGTG	-0.111
CGTACAAA	-0.207
CCACGAAG	-0.0422
ATCCGAGC	-0.065
CTTTACCA	0.0126
CCGTGCCG	-0.103
AGACTAAA	0.0743
CACGCCAG	-0.192
GTGAGATA	-0.00882
CCTGCCCG	-0.269
AGAATGTG	-0.221
ATGGTACC	0.0555
AAGAACAA	0.031
AAACAGGC	-0.117

Sequence	PBM E-score
GGAGAGAA	-0.0838
AGATTTAC	0.149
ACTGTCAT	-0.153
AAGCCGTC	0.0932
GAACCTGC	-0.112
GATCCGTA	0.0138
CCTTGAGC	-0.105
ATGGAAGG	-0.201
CATGGCCG	-0.106
CACAACGG	-0.302
TGCACACA	-0.235
CTTCGATC	-0.147
CAGGCGGG	0.0356
CCCTACCG	-0.134
CATACTGC	0.0056
TAAAAGAA	0.217
TGGTAGAA	-0.0549
ATCTACGC	0.0521
CAAGAATA	0.19
CTTCGAAA	0.102
AAGTGAGG	-0.0969
ATGACTCA	-0.148
GTTCAAAC	-0.0258
ATGAAGAG	0.0953
ACCGCTCC	-0.0135

Sequence	PBM E-score
ACAGTCAT	-0.21
AACAGTCA	-0.196
CGGTAACC	0.134
AGTGGCAC	0.15
CAGCCTGA	0.099
CCCATAAA	0.0198
ACTTTTAC	0.172
ATGCAAAC	0.115
ATTGACGA	-0.0985
TTATGGAA	0.163
GTCAGAGA	-0.187
TACGCTGA	0.0439
ACTTAGAA	0.00292
GAGTCCCC	-0.0421
ATCCAATC	0.13
ACAGGAGT	0.0951
AGCACGGC	-0.0167
CGGGCTGA	-0.241
AGACTTAA	-0.0766
AATCTTAA	0.0368
CGGCGAAA	-0.141
GCCATAGA	-0.134
